The subject of this data set is ATP. Put plainly: switch fluorescence ratio, 500 uM ATP over buffer (Cy3 cluster intensity, sum of 5 cycles each) (fold (ratio)); higher = stronger signal-on switching upon ATP binding; sequences stand for … in TCGTCGGCAGCGTCAGATGTGTATAAGAGACAGTTTTTTTTTTTTTTTTTTTTTTTTT…TC. The settings on record: aptamer strand: ATP DNA aptamer (quencher-CACCTGGGGGAGTATTGCGGAGGAAGG + anchor), 100 nM annealed; ATP concentration: 500 uM; one replicate. A digest of the protocol: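 Per cluster, summed Cy3 intensity from the target cycles was divided by that from the buffer cycles to give the fluorescence ratio, then averaged per switch-domain sequence. Clusters outside 100-1000 RFU were excluded. The Cy3-labelled switching-strand clusters, on a modified Illumina MiSeq flow-cell, were annealed to 100 nM quencher-labelled ATP aptamer and imaged in selection buffer, then after 15 min with 500 uM ATP at 22 °C, for five cycles with NaOH stripping and re-annealing between them.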

Switch fluorescence ratio data for 67 sequences are collected here from the supplement of paper PMC10126150.

Sequences with one replicate were seen in a single cluster, so their values are uncertain.
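Note: ATP exposure 15 min at 22 °C before imaging.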

As to TCCGATACGT, the switch fluorescence ratio is 1.24. With TCCCCGGCCA the figure was 0.991; with TCAAGCAAGG, 1.15; with GTCTTTTTGA, 0.982. With TTGCTGTTCT the figure was 0.993; with ACGGAGTCTG, 0.986. With GCTCTCCAGG the figure was 3.35; with TCTACTTATA, 0.989; with AACTGATGTC, 1.02.

For TAGAATCCC, the switch fluorescence ratio was determined as 0.997. With GGGCACTGAG the figure was 1.05. On to AGGAGGACGC, for which the switch fluorescence ratio stood at 1.07. Take ATTGCCTTG: the switch fluorescence ratio came out at 0.996.

Consider GAATTCATAA, for which the switch fluorescence ratio is 1. With GGACAGGTGC the figure was 1.77; with AAAGAGCGTG, 0.961; with GAACCTGTGG, 0.966. For TCAGTTGAGA, the switch fluorescence ratio came to 1. Regarding ACGATAAATC, the switch fluorescence ratio came to 1.08. TGAAACGGGT: the switch fluorescence ratio amounted to 0.982.

Regarding CCAATGAGAC, the switch fluorescence ratio was found to be 1.39. With CTAGAGAGGG the figure was 0.981. In the case of AAAAGCGAGT, the switch fluorescence ratio turned out to be 1.01. Next, TACTTGCTTA: 1.01; GGGATACTCC: 3.22; CCTTTAATCA: 0.994.

Take CCTATACTGA: the switch fluorescence ratio came out at 1.02. Next, ATATAGTCAG: 0.947; CGCCAAAAAA: 1.78. Next, CCAGGGTGTC: 1.57; CGTCTGGGTT: 0.997. Consider TAAAATTGGA, for which the switch fluorescence ratio is 1.02.

For the sequence CGGGTGTC, the switch fluorescence ratio turned out to be 1.07. Next, AATACTTATC: 1.04. TCGCCTCGGG: the switch fluorescence ratio was 0.952.

Regarding ACGCACGCGT, the switch fluorescence ratio stood at 1.12.

Take TTCGGACGGC: the switch fluorescence ratio was 0.998.

In the case of GCATGGCTCC, the switch fluorescence ratio was 1.74. Next, ACCAATCTCA: 1.06; TGCCGCGGTT: 1.05. With GCTACAGGG the figure was 1.03; with GCTGCTCGCC, 1.06. With TTAGTATGTG the figure was 1.02. For ACAAGAAGTA, the switch fluorescence ratio was 0.99. With TCTTCGTAAC the figure was 2.16.

As for CGCAGACGGC, the switch fluorescence ratio is 1.08.

With CGGATCAGAT, the switch fluorescence ratio turned out to be 1.

Regarding TACACTGT, the switch fluorescence ratio came to 1.05.

With TCAAGAGTTT, the switch fluorescence ratio was 0.996.

As for TTGGTTATA, the switch fluorescence ratio was 0.999.

As for CCGAGTTTAT, the switch fluorescence ratio came out at 1.34. With TTAATCCTAG the figure was 0.978; with TCAGTCCTAA, 1.01; with TGGATGAT, 0.987. Next, GGGTGAAGCT: 1.03; TTTAATGATA: 1; TATAGGGCCC: 1.02. With CAGTGTGAGA, the switch fluorescence ratio is 1.05.

As to CTTAGGGAAT, the switch fluorescence ratio came to 0.959.

For the sequence CGGATATCTT, the switch fluorescence ratio came out at 1.02.

Take ACATACGGAT: the switch fluorescence ratio is 1.37.

For CACAAAAGAA, the switch fluorescence ratio amounted to 0.984. With AGAGCGAGGG the figure was 0.953. With GGGGATACAT, the switch fluorescence ratio was 0.994. With ATTGAATCGG the figure was 0.988. Next, AGCAAGTGGT: 1.02. With TTTGTAGCCT the figure was 1.02.
